What all share (format): in vivo
Test [1] concerns Botrytis cinerea. In words: Test Example B: Gray mold on tomato. The source says: [Test Example B] Gray Mold on Tomato
Seeds of a test plant (tomato variety: Oogata Fukuju) were planted followed by cultivating until three to five first leaves (true leaves) appeared.

Test [2] concerns Blumeria graminis f sp. hordei. In words: Test Example D: Powdery mildew on barley. An excerpt: [Test Example D] Powdery Mildew on Barley
After the sprayed dilutions were dried, conidia of Blumeria graminis f sp. hordei were inoculated to the plants by shaking off.

Test [3] concerns Puccinia recondita. In words: Test Example E: Brown rust on wheat. The following applies: for Test E control value: Brown rust on wheat; for Test E (control value class): brown rust on wheat, Puccinia recondita, 250 ppm spray. The source says: [Test Example E] Brown Rust on Wheat
Test [4] concerns Alternaia brassicicola. In words: Test Example C: Alternaria sooty spot on cabbage. The following applies: Alternaria sooty spot on cabbage. The source says:
[Test Example C] Alternaria Sooty Spot on Cabbage
Seeds of a test plant (cabbage variety: Shikidori) were planted followed by cultivating until the cotyledons extended.

Where [5] appears, read: gray mold on tomato, Botrytis cinerea, 250 ppm spray.
[6] abbreviates: powdery mildew on barley, 250 ppm spray.

Turning to `CCn1c(-c2c(F)cc(OC)cc2F)c(-c2cc(OC)cc(OC)c2Cl)ccc1=O` [Compound 73], the “Test B control value” in test [1] (Gray mold on tomato) was “H (H shows more than 50% of control values)”. Further, the “Test D control value” in test [2] (Powdery mildew on barley) is given as “H (H shows more than 50% of control values)”. The “Test E control value” in test [3] was “H (H shows more than 50% of control values)”. Moreover, the “Test C control value” in test [4] is listed as “H (H shows more than 50% of control values)”.
On to `CCn1c(-c2c(F)cccc2F)c(-c2cccc(OCOC)c2)ccc1=O` [Compound 101], for which, in test [1] (Gray mold on tomato), the “Test B control value” is reported as “H (H shows more than 50% of control values)”. Further, the “Test D control value” in test [2] (Powdery mildew on barley) was “H (H shows more than 50% of control values)”. In test [3], the “Test E control value” was “H (H shows more than 50% of control values)”. Moreover, in test [4], the “Test C control value” is “H (H shows more than 50% of control values)”.
`Cn1c(-c2ncc(Cl)cc2Cl)c(-c2ccc(F)cc2)ccc1=O` [Compound 23]: the “Test B control value” in test [1] (Gray mold on tomato) is listed as “H (H shows more than 50% of control values)”. Moreover, the “Test D control value” in test [2] (Powdery mildew on barley) was “H (H shows more than 50% of control values)”. Also, the “Test E control value” in test [3] is “H (H shows more than 50% of control values)”. Further, the “Test C control value” in test [4] is listed as “H (H shows more than 50% of control values)”.
Consider `CCN1C(=O)CCC(c2cc(OC)cc(OC)c2)=C1c1c(F)cccc1F` [Compound 15], for which the “Test B control value” in test [1] (Gray mold on tomato) is “H (H shows more than 50% of control values)”. Further, the “Test D control value” in test [2] (Powdery mildew on barley) was “H (H shows more than 50% of control values)”. Further, the “Test E control value” in test [3] is “H (H shows more than 50% of control values)”. Further, the “Test C control value” in test [4] is given as “H (H shows more than 50% of control values)”.
As to `CCN1C(=O)CCC(c2c(F)cccc2F)=C1c1ncc(Cl)cc1Cl` [Compound 4], in test [1] (Gray mold on tomato), the “Test B control value” is “L (L shows 50% or less of control values)”. The “Test D control value” in test [2] (Powdery mildew on barley) is given as “H (H shows more than 50% of control values)”. The “Test E control value” in test [3] is “H (H shows more than 50% of control values)”. The “Test C control value” in test [4] is listed as “L (L shows 50% or less of control values)”.
For `CCn1c(-c2c(F)cc(OC)cc2F)c(-c2cccc(F)c2Cl)cc(C)c1=O` [Compound 515], the “Test B (control value class)” value in test [1] (setting [5]) is on record as “H (H shows more than 50% of control values)”. Further, in test [2] (setting [6]), the “Test D (control value class)” value was “H (H shows more than 50% of control values)”. In addition, in test [3], the “Test E (control value class)” value is “H (H shows more than 50% of control values)”.
Turning to `CCn1c(-c2c(F)cccc2F)c(-c2cccc(F)c2)ccc1=O` [Compound 153], the “Test B control value” in test [1] (Gray mold on tomato) is given as “H (H shows more than 50% of control values)”.
As to `Cn1c(-c2c(F)cc(F)cc2F)c(-c2cc(F)cc(F)c2Br)ccc1=O` [Compound 815], in test [1] (Gray mold on tomato, control value=100{1-(n/3)}), the “Test B (control value class)” value is “H (H shows more than 50% of control values)”. Further, the “Test D (control value class)” value in test [2] (Powdery mildew on barley, control value=100{1-(n/3)}) was “H (H shows more than 50% of control values)”. Also, the “Test C (control value class)” value in test [4] (control value=100{1-(n/3)}) is “H (H shows more than 50% of control values)”.
For the compound `CCn1c(-c2c(F)cc(F)cc2F)c(-c2ccccc2Cl)ccc1=O` [Compound 420], the “Test B (control value class)” value in test [1] (setting [5]) is given as “H (H shows more than 50% of control values)”. The “Test D (control value class)” value in test [2] (setting [6]) was “H (H shows more than 50% of control values)”. Further, the “Test C (control value class)” value in test [4] (250 ppm spray) was “H (H shows more than 50% of control values)”.
Turning to `CCn1c(-c2c(F)cc(OC)cc2F)c(-c2cccc(F)c2C)cc(C)c1=O` [Compound 516], the “Test B (control value class)” value in test [1] (setting [5]) is given as “H (H shows more than 50% of control values)”. For the same compound, the “Test D (control value class)” value in test [2] (setting [6]) is “H (H shows more than 50% of control values)”. Further, in test [3], the “Test E (control value class)” value is “H (H shows more than 50% of control values)”.
`Cc1ccccc1-c1ccc(=O)n(C)c1-c1c(F)cccc1F` [Compound 180]: the “Test E control value” in test [3] is given as “H (H shows more than 50% of control values)”.
Turning to `CCn1c(-c2c(F)cccc2F)c(-c2cccc(F)c2F)cc(Br)c1=O` [Compound 520], the “Test B (control value class)” value in test [1] (setting [5]) is “H (H shows more than 50% of control values)”. Also, the “Test D (control value class)” value in test [2] (setting [6]) was “H (H shows more than 50% of control values)”. The “Test C (control value class)” value in test [4] (250 ppm spray) is recorded as “H (H shows more than 50% of control values)”.

The values are drawn from patent publication US10299477B2 (priority 2015, dated 2019).
